Counter-ions that a name gives are not always drawn. Out of some 1,500 compounds screened, about 30 (2%) showed activity.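 How the source made its calls: active = robust z-score below -2; a few such results were not called.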 The list shows a part of the results.
The compounds below were run on optoTopBP1 Flp-In 293 T-REx (HEK293) cells (assay: light-induced TopBP1 condensate (nuclear foci) count, plate-normalised robust z-score vs non-control wells; higher = more TopBP1 condensates (negative = condensation inhibitor), active = hit call of the paper). Details: 10 µM; incubation time 2 h.

SMILES | light-induced TopBP1 condensate (z-score)
Clc1ccc(C(OCCN2CCCCC2)c2ccccc2)cc1 (stereo unspecified) [Cloperastine hydrochloride] | inactive: -0.56
CN1CCN(C(=O)OC2c3nccnc3C(=O)N2c2ccc(Cl)cn2)CC1 (stereo unspecified) [Zopiclone] | inactive: -0.995
C[C@]12CC[C@H](O)C[C@H]1CC[C@@H]1[C@@H]2C[C@@H](O)[C@]2(C)[C@@H](C3=CC(=O)OC3)CC[C@]12O [Digoxigenin] | active: -2.51
CC(Cc1ccccc1)NCCC(c1ccccc1)c1ccccc1 (stereo unspecified) [Prenylamine lactate] | inactive: -0.953
CC(=O)NC1CCSC1=O (racemic) [N-Acetyl-DL-homocysteine Thiolactone] | inactive: -0.247
NC(=O)C[S+]([O-])C(c1ccccc1)c1ccccc1 (stereo unspecified) [Modafinil] | inactive: 1.31
CN1C(=O)COc2c(C(=O)NC3CN4CCC3CC4)cc(Cl)cc21 (stereo unspecified) [Azasetron hydrochloride] | inactive: 0.519
Cc1cccc(C)c1NC1=NCCCS1 [Xylazine] | inactive: -0.729
C=C(C)[C@@H]1[C@H]2OC(=O)[C@@H]1[C@]1(O)C[C@H]3O[C@]34C(=O)O[C@H]2[C@]14C [Picrotoxinin] | inactive: 2.68
CC(C)c1c(CN(C)C(C)Cc2ccccc2)n(C)n(-c2ccccc2)c1=O (stereo unspecified) [Famprofazone] | inactive: 0.549
NC(=O)CN1CCCC1=O [Piracetam] | inactive: -0.343
CC(=O)OCC(=O)[C@H]1CC[C@H]2[C@@H]3CC[C@H]4C[C@H](O)CC[C@]4(C)[C@H]3C(=O)C[C@]12C [Alfadolone acetate] | inactive: 0.262
CO[C@]12C[C@@H](COC(=O)c3cncc(Br)c3)CN(C)[C@@H]1Cc1cn(C)c3cccc2c13 [Nicergoline] | inactive: -0.703
CC(=O)OCC1=C(C(=O)O)N2C(=O)[C@@H](N)[C@H]2SC1 [Cephalosporanic acid, 7-amino] | inactive: 0.816
C[N+]12CCC(CC1)C(OC(=O)C(O)(c1ccccc1)c1ccccc1)C2 (stereo unspecified) [Clidinium bromide] | inactive: 0.288
C#C[C@]1(O)C=C[C@H]2[C@@H]3CCC4=CC(=O)CC[C@@H]4[C@H]3CC[C@@]21CC [Gestodene] | inactive: -0.424
C[C@]12Cc3c[nH]nc3C[C@@H]1CC[C@@H]1[C@@H]2CC[C@@]2(C)[C@H]1CC[C@]2(C)O [Stanozolol] | inactive: 0.285
CC(C)C[C@H](CN)CC(=O)O [Pregabalin] | inactive: -0.842
CC(C)(C)NCC(O)c1ccccc1Cl (stereo unspecified) [Tulobuterol] | inactive: 0.0147
CC(C)(C)NCC(O)c1ccccc1Cl (stereo unspecified) [Tulobuterol Hydrochloride] | inactive: 0.914
COc1cc([C@@H]2c3cc4c(cc3[C@H](O)[C@H]3COC(=O)[C@H]23)OCO4)cc(OC)c1OC [Podophyllotoxin] | active: -2.43

SMILES | light-induced TopBP1 condensate (z-score)
CCNC1(c2cccs2)CCCCC1=O (stereo unspecified) [Tiletamine hydrochloride] | inactive: 0.129
CCC1(c2cccc(O)c2)CCCCN(C)C1 (stereo unspecified) [Meptazinol hydrochloride] | inactive: 1.42
C[C@@H]1CC[C@H]2[C@@H](C)C(=O)O[C@@H]3O[C@@]4(C)CC[C@@H]1[C@]32OO4 [Artemisinin] | inactive: 0.357
CCN(C(C)=O)c1cccc(-c2ccnc3c(C#N)cnn23)c1 [Zaleplon] | inactive: -0.711
NCCc1c[nH]c2ccc(O)cc12 [Serotonin hydrochloride] | inactive: 0.329
CCC(COC(=O)c1cc(OC)c(OC)c(OC)c1)(c1ccccc1)N(C)C (stereo unspecified) [Trimebutine] | inactive: -0.833
COc1ccc(Cc2nccc3cc(OC)c(OC)cc23)cc1OC [Papaverine hydrochloride] | inactive: -0.0743
CCC1(CC)C(=O)C=CNC1=O [Pyrithyldione] | inactive: 0.505
CC(C)(C)NCC(O)c1cc(Cl)c(N)c(Cl)c1 (stereo unspecified) [Clenbuterol hydrochloride] | inactive: 0.51
Fc1ccc(C(OCCN2CCN(CCCc3ccccc3)CC2)c2ccc(F)cc2)cc1 | inactive: 0.413
CC(=O)O[C@H]1C[C@H](O[C@H]2[C@@H](O)C[C@H](O[C@H]3[C@@H](O)C[C@H](O[C@H]4CC[C@@]5(C)[C@H](CC[C@@H]6[C@@H]5C[C@@H](O)[C@]5(C)[C@@H](C7=CC(=O)OC7)CC[C@]65O)C4)O[C@@H]3C)O[C@@H]2C)O[C@H](C)[C@H]1O[C@@H]1O[C@H](CO)[C@@H](O)[C@H](O)[C@H]1O [Lanatoside C] | inactive: -1.56
COc1ccc(CCN2CCC(Nc3nc4ccccc4n3Cc3ccc(F)cc3)CC2)cc1 [Astemizole] | inactive: -0.731
CC1(C)C(C=C(Cl)Cl)C1C(=O)OC(C#N)c1cccc(Oc2ccccc2)c1 (stereo unspecified) [Cypermethrin] | inactive: 1.09
Oc1cc(Cl)ccc1Oc1ccc(Cl)cc1Cl [Triclosan] | inactive: 0.585
C[N+]1([O-])[C@@H]2C[C@@H](OC(=O)[C@H](CO)c3ccccc3)C[C@H]1[C@@H]1O[C@@H]12 (stereo partly specified) [Scopolamin-N-oxide hydrobromide] | inactive: -0.439
CCN(CC)C(C)C(=O)c1ccccc1 (stereo unspecified) [Amfepramone hydrochloride] | inactive: 0.658
C[C@]12CC[C@@H]3c4ccc(OC(=O)N(CCCl)CCCl)cc4CC[C@H]3[C@@H]1CC[C@@H]2O [Estramustine] | inactive: -1.4
CCC1(c2ccc(N)cc2)CCC(=O)NC1=O (stereo unspecified) [Glutethimide, para-amino] | inactive: -0.727
CCN(C)C(=O)Oc1cccc([C@H](C)N(C)C)c1 [Rivastigmine] | inactive: -0.679
CC[C@@]1([C@@H]2O[C@@H]([C@H]3O[C@@](O)(CO)[C@H](C)C[C@@H]3C)C[C@@H]2C)CC[C@H]([C@]2(C)CC[C@]3(C[C@H](O)[C@@H](C)[C@@H]([C@@H](C)[C@@H](OC)[C@H](C)C(=O)O)O3)O2)O1 [Monensin sodium salt] | inactive: 0.406

— the supplement of paper PMC12582362
